Measurements as given in patent US20250186386A1, “METHODS OF REDUCING THE NEED FOR PERIPHERAL ARTERIAL REVASCULARIZATION IN A STATIN-TREATED SUBJECT” (AMARIN PHARMACEUTICALS IRELAND LIMITED, priority 2018, published 2025).

Test: REDUCE-IT: treatment-emergent adverse events of the safety population

## CC/C=C\C/C=C\C/C=C\C/C=C\C/C=C\CCCC(=O)OCC [AMR101, icosapent ethyl]
  Serious TEAE Leading to Withdrawal of Study Drug, %: (2.2%)
